Experimental data reported in the CheMixHub viscosity set.
Several values for one entry are separate records, joined by “and”; a condition that tells them apart may be missing. Identical values can stand only once. This continues a long series; more values of the same kind are listed elsewhere.

Legend:
[1] = xn = mol fraction of the nth substance listed

CCO
Conditions | viscosity
293.15 K, 101.33 kPa | 1 mPa·s
294 K, 101 kPa | 1.214 mPa·s
298.15 K, 101.33 kPa | 1.007 mPa·s
303 K, 101 kPa | 0.983 mPa·s
303.15 K, 100 kPa | 0.975 mPa·s and 0.9905 mPa·s and 0.988 mPa·s
303.15 K, 101.3 kPa | 0.9892 mPa·s
303.16 K, 101.33 kPa | 0.9933 mPa·s
303.2 K, 101.33 kPa | 0.974 mPa·s
308 K, 101.33 kPa | 0.95 mPa·s
308.15 K, 100 kPa | 0.93 mPa·s and 0.9318 mPa·s and 0.9 mPa·s
308.15 K, 101.3 kPa | 0.893 mPa·s and 0.893 mPa·s
308.15 K, 101.31 kPa | 0.9 mPa·s
311 K, 101.3 kPa | 0.8481 mPa·s
311.79 K, 100 kPa | 0.87 mPa·s
312.09 K, 100 kPa | 0.87 mPa·s
312.39 K, 100 kPa | 0.86 mPa·s
313 K, 101.33 kPa | 0.8352 mPa·s and 0.89 mPa·s
313.15 K, 100 kPa | 0.815 mPa·s and 0.83 mPa·s
313.15 K, 101.2 kPa | 0.8591 mPa·s
313.15 K, 101.3 kPa | 0.814 mPa·s and 0.83 mPa·s
313.18 K, 101.33 kPa | 0.8305 mPa·s
313.61 K, 100 kPa | 0.85 mPa·s
313.91 K, 100 kPa | 0.84 mPa·s
314.21 K, 100 kPa | 0.84 mPa·s
314.52 K, 100 kPa | 0.83 mPa·s
314.82 K, 100 kPa | 0.83 mPa·s
315.12 K, 100 kPa | 0.82 mPa·s
315.42 K, 100 kPa | 0.82 mPa·s
315.73 K, 100 kPa | 0.81 mPa·s
316.03 K, 100 kPa | 0.81 mPa·s
316.33 K, 100 kPa | 0.8 mPa·s
316.64 K, 100 kPa | 0.8 mPa·s
316.94 K, 100 kPa | 0.8 mPa·s
317.24 K, 100 kPa | 0.79 mPa·s
317.55 K, 100 kPa | 0.79 mPa·s
317.85 K, 100 kPa | 0.78 mPa·s
318.15 K, 101.3 kPa | 0.72 mPa·s and 0.72 mPa·s
318.15 K, 101.33 kPa | 0.757 mPa·s and 0.768 mPa·s
318.76 K, 100 kPa | 0.77 mPa·s
319 K, 101.3 kPa | 0.7348 mPa·s
319.06 K, 100 kPa | 0.77 mPa·s
319.36 K, 100 kPa | 0.76 mPa·s
319.67 K, 100 kPa | 0.76 mPa·s
319.97 K, 100 kPa | 0.75 mPa·s
320.27 K, 100 kPa | 0.75 mPa·s
320.58 K, 100 kPa | 0.74 mPa·s
320.88 K, 100 kPa | 0.74 mPa·s
321.79 K, 100 kPa | 0.73 mPa·s
322.09 K, 100 kPa | 0.72 mPa·s
322.39 K, 100 kPa | 0.72 mPa·s
323 K, 101.33 kPa | 0.6995 mPa·s
323.15 K, 100 kPa | 0.7055 mPa·s
323.15 K, 101.3 kPa | 0.615 mPa·s
323.15 K, 101.33 kPa | 0.7016 mPa·s

CS(C)=O + CC#N
[1]
Conditions | viscosity [mPa·s]
298.15 K, 101 kPa, x2 = 0.9771 | 0.3517
303.15 K, 101 kPa, x2 = 0.9771 | 0.3363
303.15 K, 101.33 kPa, x2 = 0.0948 | 1.554
303.15 K, 101.33 kPa, x2 = 0.2036 | 1.308
303.15 K, 101.33 kPa, x2 = 0.2949 | 1.124
303.15 K, 101.33 kPa, x2 = 0.4 | 0.9332
303.15 K, 101.33 kPa, x2 = 0.4976 | 0.7778
303.15 K, 101.33 kPa, x2 = 0.5977 | 0.6451
303.15 K, 101.33 kPa, x2 = 0.6957 | 0.5361
303.15 K, 101.33 kPa, x2 = 0.7957 | 0.4469
303.15 K, 101.33 kPa, x2 = 0.8967 | 0.3757
308.15 K, 101 kPa, x2 = 0.9771 | 0.3194
313.15 K, 101 kPa, x2 = 0.9502 | 0.3119
313.15 K, 101 kPa, x2 = 0.9771 | 0.305
318.15 K, 101 kPa, x2 = 0.9502 | 0.2967
318.15 K, 101 kPa, x2 = 0.9771 | 0.2927

CCCCN(CCCC)CCCC + CCCO
[1], 313.15 K, 101.3 kPa
Conditions | viscosity [mPa·s]
x1 = 0.5176 | 1.203
x1 = 0.616 | 1.153
x1 = 0.7064 | 1.12
x1 = 0.8055 | 1.081
x1 = 0.8864 | 1.046

CS(C)=O + OCCO
[1], 323.15 K, 101 kPa
Conditions | viscosity [mPa·s]
x2 = 0.3504 | 3.57
x2 = 0.404 | 3.94
x2 = 0.4562 | 4.32
x2 = 0.5076 | 4.64
x2 = 0.5568 | 4.92
x2 = 0.6061 | 5.19
x2 = 0.6537 | 5.42
x2 = 0.7004 | 5.62
x2 = 0.7461 | 5.81
x2 = 0.7906 | 5.98
x2 = 0.8342 | 6.15
x2 = 0.8769 | 6.32
x2 = 0.9189 | 6.48
x2 = 0.9599 | 6.64
